# Measured values: PubChem BioAssay AID624296 (National Center for Advancing Translational Sciences (NCATS), 2012)
# Screen size: about 350,000 compounds; about 9,900 (2.8%) were called active. The shares of active, inactive and inconclusive entries below differ from those in the screen. Calls come from the whole dose curve; as a rule, active = well fitted activation curve with a large enough effect; inconclusive = small, poorly fitted or top-dose-only effect; inactive = no such curve, though single readings can be large or run the other way. No potency is given beside an inconclusive call; the fits are too rough.
# Assay: A quantitative high throughput screen for small molecules that induce DNA re-replication in MCF 10a normal breast cells. For activity, positive = re-replication: % of control where 0% means no effect. Note: nearly all actives have a fitted effect of over 50% in size.
# Details: MCF 10A DNA re-replication, Hoechst nuclear intensity, 48 h; activity, positive = re-replication: at 46.1 µM (top of the series)
# Potency is the fitted concentration of half-maximal effect; tags give direction and shape of the fitted curve.
Compound,Potency,"activity, positive = re-replication"
Clc1ccc(-n2nnnc2-c2cnc3ccc(Cl)cc3c2-c2ccccc2)cc1,"inconclusive [activator, full curve, poor fit]",
Cn1cc(CCNCc2cn[nH]c2-c2ccc(-c3ccccc3)cc2)cn1,"inconclusive [activator, single point]",
CN(C(=O)CC1C(=O)NCCN1Cc1ccccc1C(F)(F)F)C1CCOCC1 (centres undefined),,inactive: 1.59%
CC(C)N(C(=O)[C@H]1CC(CC(=O)NCCc2ccccn2)C(=O)N2CCc3c([nH]c4ccccc34)[C@]12C)C(C)C (some centres undefined),"inconclusive [activator, full curve, poor fit]",
O=C(COc1ccc(N2C(=O)c3ccccc3C2=O)cc1)c1ccccc1,,inactive: -2.02%
Cn1c(C(=O)OC(C(=O)NCC2CCCO2)c2cccnc2)cc2sccc21 (centres undefined),"inconclusive [activator, full curve, poor fit]",
Cc1cc(C)c(C#N)c(SCc2cc3c(cc2Cl)OCO3)n1,,inactive: -3.55%
O=C(N/N=C/c1cccc2ccccc12)c1cc2ccccc2o1,active: 11.6 µM,
CC1=NN(c2ccccc2)C(=O)/C1=C/c1cn(C)c2ccccc12,"inconclusive [activator, full curve, poor fit]",
COc1ccc(Cc2nc3ccc(C(=O)NCCCSC)cc3o2)cc1OC,,inactive: -5.05%
Cc1cc2ccccc2c(=O)n1CC(=O)NCCC1=CCCCC1,,inactive: -1.26%
Cc1nc(SCC(=O)NCc2ccco2)[nH]c(=O)c1C,active: 23.1 µM,
COc1cccc(/C=C/C(=O)OCC(=O)N2CCN(c3ccccc3)CC2)c1,,inactive: 5.15%
CCNc1nc(N)c(C(=O)C23CC4CC(CC(C4)C2)C3)s1,,inactive: -0.416%
COC(=O)CSc1[nH]c2ccc(F)cc2c1[N+](=O)[O-],"inconclusive [activator, single point]",
CCCc1nnc2c(N(C)S(=O)(=O)c3ccc(C)cc3)nc3ccccc3n12,"inconclusive [activator, full curve]",
Cc1ccc(S(=O)(=O)Nc2ccc3ccccc3c2)cc1,"inconclusive [activator, single point]",
CCc1ccccc1NC(=S)/N=C(\N)Nc1nc(C)c2cc(C)ccc2n1,"inconclusive [activator, partial curve, poor fit]",
Cc1cc(C)cc(NC(=S)Nc2ccccn2)c1,,inactive: -0.152%
Cc1ccc(S(=O)(=O)Cc2ccc(C(=O)OCc3ccccc3)cc2)cc1,"inconclusive [activator, single point]",
Cc1onc(-c2c(Cl)cccc2Cl)c1C(N)=O,,inactive: 10.1%
CCOC(=O)c1ccc(NC(=O)NCc2cccnc2)cc1,,inactive: -8.15%
Nc1nn2cc(-c3ccc(Br)cc3)nc2c2ccccc12,"inconclusive [activator, single point]",

Compound,Potency,"activity, positive = re-replication"
Cc1ccc2c(C(=O)CCl)c(C)[nH]c2c1,active: 18.4 µM,
COc1cc2c(cc1OC)C(C)N(C(=O)CCc1c[nH]c3ccccc13)CC2 (centres undefined),"inconclusive [activator, single point]",
Cc1scc(C(=O)NNC(=S)NCC2CCCO2)c1C (centres undefined),"inconclusive [activator, single point]",
COc1ccc(C(=O)Nc2ncc3c(n2)CC(c2ccco2)CC3=O)cc1 (centres undefined),"inconclusive [activator, partial curve, poor fit]",
CCC(=O)OC1(C(C)=O)CCC2C3CCC4=CC(=O)CCC4(C)C3CCC21C (centres undefined),"inconclusive [activator, partial curve, poor fit]",
O=C(COc1cccc(C(F)(F)F)c1)NCC(c1cccs1)N1CCOCC1 (centres undefined),,inactive: 1.6%
CN1CCN(c2nc(-c3ccccc3)nc(-c3ccc(F)cc3)c2C#N)CC1,"inconclusive [activator, single point]",
COc1ccc(-c2ccc(-c3cc(=O)oc4cc(OC)c(OC)c(OC)c34)cc2)cc1F,"inconclusive [activator, single point]",
CCCCCCn1c(N2CCN(c3ccccc3)CC2)nc2c1c(=O)n(C)c(=O)n2C,"inconclusive [activator, single point]",
O=C(c1ccccc1)c1ccccc1C(=O)N1CCN(Cc2ccccc2F)CC1,"inconclusive [activator, single point]",
CCOc1cc(/C=N/NC(=O)N/N=C/c2ccc(O)c(OCC)c2)ccc1O,"inconclusive [activator, full curve]",
CC1CC(=O)c2c(cc3c(-c4c(O)cc(O)c5c(O)c6c(cc45)OC(C)CC6=O)c(O)cc(O)c3c2O)O1 (centres undefined),"inconclusive [activator, partial curve, poor fit]",
Cc1cccc(NC(=O)CN(CC2CCCO2)C(=O)c2oc3ccccc3c2C)c1C (centres undefined),"inconclusive [activator, single point]",
Cc1ccc(OC(F)F)c(NC(=O)Nc2cccc(C(F)(F)F)c2)c1,"inconclusive [activator, full curve]",
O=C1NC2(CCOc3ccccc32)C(=O)N1CC(=O)N(Cc1ccccc1)C1CCS(=O)(=O)C1 (centres undefined),"inconclusive [activator, partial curve, poor fit]",
O=C(NCc1nc2ccccc2[nH]1)C1=C[C@@H](c2csc3ccccc23)C[C@@H](OCCCCO)O1,"inconclusive [activator, partial curve, poor fit]",
Fc1cccc2sc(Nc3nnc(-c4ccccc4)o3)nc12,active: 23.1 µM,
N#CC1(C#N)CC(C=O)=C(N)C1(C#N)CC(=O)C12CC3CC(CC(C3)C1)C2 (centres undefined),active: 18.4 µM,
CCN(CC)c1ccc2cc(S(=O)(=O)c3ccc(C)cc3)c(=O)oc2c1,active: 2.59 µM,
COc1cc2c(cc1OC)CN(C(=O)CNC(=O)c1ccc(OC(F)F)cc1)CC2,,inactive: -12.7%
CCOC(=O)Cc1csc(NC(=S)NC(=O)c2ccc(F)cc2)n1,,inactive: 2.52%
CC(=O)c1sc2nsc(SCCN3CCCC3)c2c1N,"inconclusive [activator, full curve]",
COc1ccc(N2CCN(C(CNC(=O)c3ccc4c(c3)OCO4)c3cccnc3)CC2)cc1 (centres undefined),,inactive: -0.534%

Compound,Potency,"activity, positive = re-replication"
Cc1ccc2c(c1)C(=O)c1c(C(=O)O)cccc1-2,"inconclusive [activator, partial curve, poor fit]",
COc1ccc(N2CCN(CNC(=O)c3ccccc3)CC2)cc1,active: 0.92 µM,
CCCNC(=O)c1ccc(COc2ccc(C(C)(C)C)cc2)o1,"inconclusive [activator, partial curve]",
Cc1noc(C)c1S(=O)(=O)N(C)C[C@H]1Oc2c(NS(=O)(=O)c3cn(C)cn3)cccc2C(=O)N([C@H](C)CO)C[C@@H]1C,"inconclusive [activator, full curve, poor fit]",
CCOc1ccc(N2C=Nc3ccc(OCC)cc3C2)cc1,,inactive: -0.616%
COc1ccc(/C=C2\CCCC3C2=NN(C(=O)CSc2ncn[nH]2)C3c2ccc(OC)cc2)cc1 (centres undefined),"inconclusive [activator, full curve, poor fit]",
Cc1ccc(S(=O)(=O)N2CCCCC2)cc1NC(=O)c1nn(C)c(=O)c2ccccc12,"inconclusive [activator, single point]",
COc1ccc(CN(C)CC2CCCN(CCc3ccc(F)cc3)C2)c(OC)c1OC (centres undefined),"inconclusive [activator, partial curve, poor fit]",
Cc1ccc(OCC(O)CN2CCN(c3ccccn3)CC2)c(C)c1 (centres undefined),"inconclusive [activator, partial curve, poor fit]",
O=C(Nc1ccc(Cl)cc1)Nc1cccc2nsnc12,active: 18.4 µM,
COc1ncccc1-c1nnn(-c2ccc(Cl)c(Cl)c2)n1,"inconclusive [activator, partial curve]",
C=CCN1C(=S)CC(c2ccccc2)=Nc2ccccc21,"inconclusive [activator, single point]",
Cc1nc2c(cc(Oc3ccc(S(=O)(=O)N4CCOCC4)cn3)c3ccsc32)s1,,inactive: 1.52%
COC(=O)c1ccc(/C=C/C(=O)c2ccc(OC)cc2)cc1,"inconclusive [activator, single point]",
CN(C)c1ccc(N=Nc2ccccc2C(=O)OCC(=O)Nc2ccccc2C(F)(F)F)cc1,"inconclusive [activator, partial curve, poor fit]",
CCOc1ccc(N(CC(=O)Nc2ccc(C)c(F)c2)C2=NC3CS(=O)(=O)CC3S2)cc1 (centres undefined),"inconclusive [activator, single point]",
CCOc1ccc(C(=O)NCC2CCCN2S(=O)(=O)c2cccs2)cc1 (centres undefined),,inactive: 21.3%
CN(C(=O)COC(=O)C1CCN(S(=O)(=O)c2c(Cl)cccc2Cl)CC1)C1CCCCC1,"inconclusive [activator, single point]",
CC(=O)c1ccc(OC(=O)Oc2ccc(C(C)=O)cc2)cc1,,inactive: -1.34%
O=C(c1ccccc1)c1ccc(OCC(O)CN2CCCCC2)cc1 (centres undefined),"inconclusive [activator, single point]",
Cc1[nH]c(C)c(S(=O)(=O)N(Cc2ccccc2)C(C)(C)C)c1C(=O)N1CCCC1,"inconclusive [activator, partial curve, poor fit]",
CCC(CO)Oc1cc(NCc2ccc(F)cc2)c2ncn(C(C)C)c2c1 (centres undefined),active: 23.1 µM,
CCCc1[nH]n(-c2nc3ccccc3s2)c(=O)c1C=NCC(C)C,,inactive: -3.41%
